This is an account of results in PMC4170573 (Nature communications, 2014).

For this assay, the target named is Flag-tagged full length WT1 protein (residue 1–449, including exon 5/17AA and KTS) (human, UniProt P19544 1-449). Briefly: pull-down.
UniProt P19544, sequence (P19544 whole entry, change not shown): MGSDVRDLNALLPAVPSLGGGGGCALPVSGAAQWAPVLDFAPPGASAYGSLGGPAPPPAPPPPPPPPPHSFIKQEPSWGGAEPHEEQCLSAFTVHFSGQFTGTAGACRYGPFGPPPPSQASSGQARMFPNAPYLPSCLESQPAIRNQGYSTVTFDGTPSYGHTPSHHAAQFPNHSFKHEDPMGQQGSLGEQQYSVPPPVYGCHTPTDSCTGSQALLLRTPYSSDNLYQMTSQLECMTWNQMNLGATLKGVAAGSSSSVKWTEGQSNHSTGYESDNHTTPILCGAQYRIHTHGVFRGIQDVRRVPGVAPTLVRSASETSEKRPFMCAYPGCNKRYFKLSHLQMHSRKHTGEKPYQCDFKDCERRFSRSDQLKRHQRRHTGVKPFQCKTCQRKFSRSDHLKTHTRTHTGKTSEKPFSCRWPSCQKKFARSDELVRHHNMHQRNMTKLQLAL

B1: full length His-MAD2 (natural protein)
chain: not shown
For the molecule B1, the binding result was “binds”.

B2: MAD2 dimerization mutant, F141A (natural protein)
chain: not shown
With B2, the binding result is “binds”.

B3: MAD2 L13A (natural protein)
chain: not shown
Regarding B3, the binding result was “binds”.

B4: MAD2 dimerization mutant, R133A (natural protein)
chain: not shown
On to B4, for which the binding result was “binds”.
